Article PMC8506653 (Clinical cancer research : an official journal of the …, 2021)
Read-outs that look alike come from different tables or passages of the source.

Experiments:
[1] = test system: leukemia cells expressing FLT3-ITD; experiment: apoptosis induction; assay type: cell-based
[2] = target: anaplastic lymphoma kinase (ALK) (Homo sapiens, UniProt Q9UM73); experiment: in vitro pharmacology assay, kinase inhibition; assay type: biochemical
[3] = clinical pharmacokinetics after oral gilteritinib tablet; assay type: in vivo, human
[4] = test system: cells expressing several less common FLT3-TKD mutations (I836, other D835 and other mutations); details: I836, other D835 and other mutations reported in AML; cited from earlier work
[5] = target: hERG currents (Homo sapiens, UniProt Q12809); experiment: in vitro block of hERG currents; assay type: cell-based; details: IC50, blocking hERG currents
[6] = target: FLT3 phosphorylation (Homo sapiens, UniProt P36888); experiment: ex vivo FLT3 plasma inhibitory assay; assay type: cell-based; details: by day 8 of cycle 1, doses of ≥ 80 mg
[7] = test system: patients with R/R AML who received 120 mg gilteritinib, regardless of FLT3 status; experiment: primary
[8] = test system: rats; experiment: 13-week oral repeated dose toxicity study; assay type: in vivo
[9] = target: tropomyosin receptor kinase A (TRKA) (Homo sapiens, UniProt P04629); experiment: in vitro pharmacology assay, kinase inhibition; assay type: biochemical; details: at 5 nM
[10] = target: nucleophosmin 1-anaplastic lymphoma kinase (NPM1-ALK) (Homo sapiens, UniProt P06748+Q9UM73); experiment: in vitro pharmacology assay, kinase inhibition; assay type: biochemical
[11] = test system: CYP3A4; experiment: drug interactions / metabolism; assay type: in vivo, human
[12] = target: leukocyte tyrosine kinase (LTK) (Homo sapiens, UniProt P29376); experiment: in vitro pharmacology assay, kinase inhibition; assay type: biochemical
[13] = test system: patients with R/R AML who received 120 mg gilteritinib, regardless of FLT3 status; details: human, in vivo
[14] = target: ROS (Homo sapiens, UniProt P08922); experiment: in vitro pharmacology assay, kinase inhibition; assay type: biochemical; details: at 5 nM
[15] = target: FLT3 (Homo sapiens, UniProt P36888); experiment: in vitro pharmacology assay, kinase inhibition; assay type: biochemical
[16] = target: MER (Homo sapiens, UniProt Q12866); experiment: in vitro pharmacology assay, kinase inhibition; assay type: biochemical; details: at 5 nM
[17] = target: RET (Homo sapiens, UniProt P07949); experiment: in vitro pharmacology assay, kinase inhibition; assay type: biochemical; details: at 5 nM
[18] = test system: dogs; experiment: 13-week oral repeated dose toxicity study; assay type: in vivo
[19] = test system: adult patients with R/R AML having a FLT3-ITD, -D835, or -I836 mutation; experiment: ADMIRAL phase 3 trial; assay type: in vivo, human
[20] = test system: adults with R/R AML; assay type: in vivo
[21] = target: AXL tyrosine kinase (Homo sapiens, UniProt P30530); experiment: in vitro pharmacology assay, kinase inhibition; assay type: biochemical
[22] = test system: patients with R/R AML; experiment: Phase 1 dose-escalation study 2215-CL-0101; assay type: in vivo; details: for CR+CRh rate: FLT3-mutated patients
[23] = test system: F691 TKD mutation; details: cited from earlier work
[24] = test system: FLT3 receptor signaling in human AML cells expressing FLT3-ITD; experiment: inhibition of FLT3 receptor signaling; assay type: cell-based; details: 0.1, 1 and 10 nM, dose response
[25] = test system: patients with first relapse of FLT3-mutated AML; details: cited from earlier work
[26] = test system: patients with FLT3 positive AML; details: front-line; cited from earlier work
[27] = first 30 days, both low and high intensity comparison groups
[28] = preselected high intensity chemotherapy subgroup, first 30 days
[29] = preselected low intensity chemotherapy subgroup, first 30 days

Sequence of UniProt Q12809 (Q12809 whole entry): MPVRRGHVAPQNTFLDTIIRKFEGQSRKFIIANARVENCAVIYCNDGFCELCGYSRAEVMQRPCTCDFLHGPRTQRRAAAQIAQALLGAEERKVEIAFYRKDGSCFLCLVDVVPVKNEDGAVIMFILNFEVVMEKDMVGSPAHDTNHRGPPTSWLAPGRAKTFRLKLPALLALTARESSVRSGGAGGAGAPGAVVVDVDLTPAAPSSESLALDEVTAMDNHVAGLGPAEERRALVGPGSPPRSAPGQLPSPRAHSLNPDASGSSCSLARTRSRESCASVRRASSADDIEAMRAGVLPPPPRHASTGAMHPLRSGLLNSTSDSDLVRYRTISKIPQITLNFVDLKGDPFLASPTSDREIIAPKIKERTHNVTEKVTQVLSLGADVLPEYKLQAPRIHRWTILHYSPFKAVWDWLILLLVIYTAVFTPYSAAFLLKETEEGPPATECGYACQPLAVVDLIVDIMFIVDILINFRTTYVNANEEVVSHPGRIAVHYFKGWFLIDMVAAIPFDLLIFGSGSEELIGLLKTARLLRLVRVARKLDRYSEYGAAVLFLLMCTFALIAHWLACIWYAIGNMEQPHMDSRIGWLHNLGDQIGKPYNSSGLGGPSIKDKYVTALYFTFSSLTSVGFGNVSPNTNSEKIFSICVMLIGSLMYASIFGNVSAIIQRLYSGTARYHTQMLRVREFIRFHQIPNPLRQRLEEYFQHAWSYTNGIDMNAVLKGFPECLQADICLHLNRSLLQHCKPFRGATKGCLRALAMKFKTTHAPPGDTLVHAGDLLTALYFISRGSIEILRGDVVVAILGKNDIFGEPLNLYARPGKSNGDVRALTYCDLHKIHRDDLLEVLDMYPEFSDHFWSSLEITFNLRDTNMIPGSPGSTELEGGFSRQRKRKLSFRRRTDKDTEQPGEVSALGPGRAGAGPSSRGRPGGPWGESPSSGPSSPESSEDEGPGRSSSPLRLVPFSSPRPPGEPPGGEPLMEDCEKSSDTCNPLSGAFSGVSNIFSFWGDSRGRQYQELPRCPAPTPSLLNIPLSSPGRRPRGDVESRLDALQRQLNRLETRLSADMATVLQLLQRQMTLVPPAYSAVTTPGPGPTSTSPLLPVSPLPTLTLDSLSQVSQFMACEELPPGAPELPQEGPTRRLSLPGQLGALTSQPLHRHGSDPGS

CCc1nc(C(N)=O)c(Nc2ccc(N3CCC(N4CCN(C)CC4)CC3)c(OC)c2)nc1NC1CCOCC1 [gilteritinib]
apoptosis [1]: induced apoptosis | inhibition at 0.001 µM [2]: > 50% | dose proportionality ([3]; doses 20 to 450 mg once daily): dose-proportional pharmacokinetics | effect of a high fat meal on absorption ([3]; human, in vivo): no clinically significant impact | Tmax ([3]; human, plasma, po): 4 to 6 h | time to steady-state concentrations ([3]; once daily dosing): ≤ 15 days | accumulation index (Rac) ([3]; once daily dosing, range): 3.23 – 9.64 | estimated half-life (T1/2) ([3]; once daily, 20 to 450 mg): 113 h | inhibitory effect compared with cells expressing the FLT3-ITD mutation [4]: equivalent inhibitory effect | IC50 [5]: 16 µM | IC50 ([5]; same value in mass units): 16 µM | inhibition of FLT3 phosphorylation [6]: greater than 90% | DS cases fatal ([7]; 1 of 11): 9% | deaths potentially resulting from direct toxicity ([7]; five deaths): 2% | pancreatitis ([7]; including one fatal event): 4% | additional organs with toxicities [8]: liver | target organs of toxicity ([8]; 13-week oral repeated dose): the eye and the kidney | inhibition [9]: greater than half maximal inhibition | inhibition at 0.001 µM [10]: > 50% | safety with concomitant strong or moderate CYP3A inhibitors ([11]; Study 2215-CL-0101): not associated with clinically significant safety issues | decrease of gilteritinib exposure ([11]; co-administration of rifampicin (a strong CYP3A inducer)): approximately 70% | metabolism ([11]; in vivo): primarily metabolized by CYP3A4 | inhibition at 0.001 µM [12]: > 50% | earliest onset of differentiation syndrome after initiation of therapy [13]: 2 days | ALT increased leading to dose interruption ([13]; 3.6 months): 6% | ALT increased resulting in discontinuation ([13]; 3.6 months): 2% | AST increased leading to dose interruption ([13]; 3.6 months): 6% | AST increased resulting in discontinuation ([13]; 3.6 months): 2% | DS cases grade 1–2 ([13]; 3.6 months): 55% | DS cases grade 3–4 ([13]; 3.6 months): 36% | DS patients who recovered after treatment or dose interruption ([13]; 3.6 months): 82% | differentiation syndrome, FDA analysis ([13]; 3.6 months): 3% | differentiation syndrome, investigator-reported adverse event ([13]; 3.6 months): 1% | fever leading to dose interruption ([13]; 3.6 months): 4% | patients who discontinued treatment permanently due to an adverse reaction ([13]; 3.6 months): 7% | patients with dose reduction due to an adverse reaction ([13]; 3.6 months): 6% | patients with interruption due to an adverse reaction ([13]; 3.6 months): 29% | posterior reversible encephalopathy syndrome (PRES) ([13]; 3.6 months): 1% | inhibition [14]: greater than half maximal inhibition | inhibition at 0.001 µM [15]: > 50% | inhibition [16]: greater than half maximal inhibition | inhibition [17]: greater than half maximal inhibition | additional organs with toxicities [18]: liver in rats and dogs, and male reproductive organs in dogs only | target organs of toxicity ([18]; 13-week oral repeated dose): the eye and the kidney | patients who proceeded to HSCT after treatment ([19]; 63/247 gilteritinib, 12/124 chemotherapy): 26% | CR, n (response rate) (95% confidence interval) ([19]; final analysis): 14% | CR/CRh, n (response rate) (95% confidence interval) ([19]; final analysis): 57 (23%) (18%, 29%) | CRh, n (response rate) (95% confidence interval) ([19]; final analysis): 22 (9%) (6%, 13%) | DOCR+CRh, median (range) duration of CR plus CRh ([19]; final analysis): 7.4 (<0.1+, 23.1+) months | DOCR, median (range) duration of CR ([19]; final analysis): 14.8 (0.6, 23.1+) months | DOCRh, median (range) duration of CRh ([19]; final analysis): 2.9 (<0.1+, 9.5+) months | CR rate ([19]; final analysis, FLT3-TKD only subgroup (n=31)): 10% | CR rate ([19]; final analysis, patients preselected for low intensity chemotherapy): 12% | CR rate ([19]; final analysis, patients preselected to receive high intensity chemotherapy): 15% | CR, n (response rate) (95% confidence interval) ([19]; final analysis, listed as Gilteritinib): 35 (14%) (10%, 19%) | rate of CR+CRh ([19]; first interim analysis, primary analysis population of 142 patients, lower 95% CI boundary 15%): 22% | event-free survival hazard ratio ([19]; in vivo): 0.79 | median overall survival ([19]; in vivo): 9.3 months | CR, n (response rate) (95% confidence interval) ([19]; interim analysis): 16 (12%) (7%, 18%) | CRh, n (response rate) (95% confidence interval) ([19]; interim analysis): 13 (9%) (5%, 16%) | DOCR+CRh, median (range) duration of CR plus CRh ([19]; interim analysis): 4.6 months | DOCR, median (range) duration of CR ([19]; interim analysis): 8.6 (1.0, 13.8) months | DOCRh, median (range) duration of CRh ([19]; interim analysis): 2.9 (0.1, 15.8+) months | patients independent at baseline who remained transfusion independent ([19]; interim analysis, 32 patients, any 56-day post-baseline period): 53% | CR/CRh, n (response rate) (95% confidence interval) ([19]; interim analysis, N=138 FLT3 mutation positive by companion diagnostic): 21% | DOCR+CRh, median (range) duration of CR plus CRh ([19]; interim analysis, listed as Gilteritinib): 4.6 (0.1, 15.8+) months | median time to first CR or CRh ([19]; interim analysis, range 0.9–9.6 months): 3.6 months | CR rate ([19]; patients with unfavorable risk cytogenetics (1/26 vs 3/11)): 4% | patients with postbaseline QTcF > 480 msec ([20]; 9/246): 4% | Grade ≥ 3 laboratory abnormality: decreased sodium [20, 27]: 5% | Grade ≥ 3 laboratory abnormality: increased ALT [20, 27]: 6% | Grade ≥ 3 laboratory abnormality: increased AST [20, 27]: 5% | patients with maximum post-baseline QTcF of > 500 msec ([20]; in vivo): < 1% | patients with maximum post-baseline increase in QTcF of > 30 to ≤ 60 msec ([20]; in vivo): 25% | patients with post-baseline increase in QTcF of > 60 msec ([20]; in vivo): 5% | Abdominal pain, Any grade [20, 28]: 11% | Abdominal pain, Grade ≥ 3 [20, 28]: 0% | Constipation, Any grade [20, 28]: 20% | Constipation, Grade ≥ 3 [20, 28]: 0% | Cough, Any grade [20, 28]: 12% | Cough, Grade ≥ 3 [20, 28]: 1% | Dizziness, Any grade [20, 28]: 11% | Dizziness, Grade ≥ 3 [20, 28]: 0% | Dyspnea, Any grade [20, 28]: 13% | Dyspnea, Grade ≥ 3 [20, 28]: 1% | Edema, Any grade [20, 28]: 13% | Edema, Grade ≥ 3 [20, 28]: 0% | Fatigue/malaise, Any grade [20, 28]: 24% | Fatigue/malaise, Grade ≥ 3 [20, 28]: 1% | Febrile neutropenia, Any grade [20, 28]: 17% | Febrile neutropenia, Grade ≥ 3 [20, 28]: 17% | Fever, Any grade [20, 28]: 17% | Fever, Grade ≥ 3 [20, 28]: 1% | Headache, Any grade [20, 28]: 11% | Headache, Grade ≥ 3 [20, 28]: 0% | Mucositis, Any grade [20, 28]: 12% | Mucositis, Grade ≥ 3 [20, 28]: 0% | Myalgia/arthralgia, Any grade [20, 28]: 38% | Myalgia/arthralgia, Grade ≥ 3 [20, 28]: 1% | Nausea, Any grade [20, 28]: 15% | Nausea, Grade ≥ 3 [20, 28]: 0% | Neuropathy, Any grade [20, 28]: 13% | Neuropathy, Grade ≥ 3 [20, 28]: 0% | Rash, Any grade [20, 28]: 15% | Rash, Grade ≥ 3 [20, 28]: 1% | Transaminase increased, Any grade [20, 28]: 31% | Transaminase increased, Grade ≥ 3 [20, 28]: 10% | Constipation, Any grade [20, 29]: 13% | Constipation, Grade ≥ 3 [20, 29]: 1% | Diarrhea, Any grade [20, 29]: 12% | Diarrhea, Grade ≥ 3 [20, 29]: 0% | Dyspnea, Any grade [20, 29]: 11% | Dyspnea, Grade ≥ 3 [20, 29]: 3% | Edema, Any grade [20, 29]: 20% | Edema, Grade ≥ 3 [20, 29]: 1% | Fatigue/malaise, Any grade [20, 29]: 21% | Fatigue/malaise, Grade ≥ 3 [20, 29]: 4% | Febrile neutropenia, Any grade [20, 29]: 27% | Febrile neutropenia, Grade ≥ 3 [20, 29]: 26% | Fever, Any grade [20, 29]: 11% | Fever, Grade ≥ 3 [20, 29]: 0% | Mucositis, Any grade [20, 29]: 20% | Mucositis, Grade ≥ 3 [20, 29]: 1% | Myalgia/arthralgia, Any grade [20, 29]: 22% | Myalgia/arthralgia, Grade ≥ 3 [20, 29]: 2% | Nausea, Any grade [20, 29]: 10% | Nausea, Grade ≥ 3 [20, 29]: 0% | Rash, Any grade [20, 29]: 10% | Rash, Grade ≥ 3 [20, 29]: 2% | Transaminase increased, Any grade [20, 29]: 36% | Transaminase increased, Grade ≥ 3 [20, 29]: 9% | median time to postbaseline QTcF > 480 msec ([20]; range 8 to 168 days): 43 days | inhibition at 0.001 µM [21]: > 50% | CR+CRh rate ([22]; 80 mg dose level): 25.0% | CR+CRh rate ([22]; 120 mg dose level): 23.2% | CR+CRh rate ([22]; 200 mg dose level): 19.1% | CR+CRh rate ([22]; 300 mg dose level): 30% | patients requiring dose interruption ([22]; human, in vivo): 19% | maximum tolerated dose (MTD) ([22]; oral, doses 20 to 450 mg investigated): 300 mg once daily | composite complete remission (CRc) rate ([22]; steady-state Ctrough 100 to 500 ng/mL): 48% | composite complete remission (CRc) rate ([22]; steady-state Ctrough <100 ng/mL): 22% | composite complete remission (CRc) rate ([22]; steady-state Ctrough >500 ng/mL): 50% | activity against F691 TKD mutation [23]: not active | phosphorylation of ERK compared to control [24]: 1% | phosphorylation of STAT5 compared to control [24]: 0% | phosphorylation of protein kinase B (AKT) compared to control [24]: 9%

C[C@]12O[C@H](C[C@]1(O)CO)n1c3ccccc3c3c4c(c5c6ccccc6n2c5c31)CNC4=O [lestaurtinib]
benefit of adding lestaurtinib to intensive salvage chemotherapy [25]: no benefit

CO[C@@H]1[C@H](N(C)C(=O)c2ccccc2)C[C@H]2O[C@]1(C)n1c3ccccc3c3c4c(c5c6ccccc6n2c5c31)C(=O)NC4 [midostaurin]
clinical outcomes on addition to standard intensive induction chemotherapy [26]: improved clinical outcomes
